{
  "source": "PubChem BioAssay AID504332",
  "about": "(National Center for Advancing Translational Sciences (NCATS), 2011)",
  "note": "Out of some 350,000 compounds screened, about 31,000 (8.9%) were called active. Inconclusive results, whose numbers are uncertain, are shown with a selection of clear calls. Calls come from the whole dose curve; as a rule, active = well fitted inhibition curve with a large enough effect; inconclusive = small, poorly fitted or top-dose-only effect; inactive = no such curve, though single readings can be large or run the other way. A potency beside an inconclusive call is a rough fit, not a confirmed value. % is set by controls: 0 for no effect and ±100 for the full control effect; potency is the fitted concentration of half-maximal effect; tags give direction and shape of the fitted curve.",
  "data": [
    {"target": "Histone-lysine N-methyltransferase EHMT2 (Homo sapiens) (UniProt Q96KQ7)", "sequence (Q96KQ7 whole entry, looked up)": "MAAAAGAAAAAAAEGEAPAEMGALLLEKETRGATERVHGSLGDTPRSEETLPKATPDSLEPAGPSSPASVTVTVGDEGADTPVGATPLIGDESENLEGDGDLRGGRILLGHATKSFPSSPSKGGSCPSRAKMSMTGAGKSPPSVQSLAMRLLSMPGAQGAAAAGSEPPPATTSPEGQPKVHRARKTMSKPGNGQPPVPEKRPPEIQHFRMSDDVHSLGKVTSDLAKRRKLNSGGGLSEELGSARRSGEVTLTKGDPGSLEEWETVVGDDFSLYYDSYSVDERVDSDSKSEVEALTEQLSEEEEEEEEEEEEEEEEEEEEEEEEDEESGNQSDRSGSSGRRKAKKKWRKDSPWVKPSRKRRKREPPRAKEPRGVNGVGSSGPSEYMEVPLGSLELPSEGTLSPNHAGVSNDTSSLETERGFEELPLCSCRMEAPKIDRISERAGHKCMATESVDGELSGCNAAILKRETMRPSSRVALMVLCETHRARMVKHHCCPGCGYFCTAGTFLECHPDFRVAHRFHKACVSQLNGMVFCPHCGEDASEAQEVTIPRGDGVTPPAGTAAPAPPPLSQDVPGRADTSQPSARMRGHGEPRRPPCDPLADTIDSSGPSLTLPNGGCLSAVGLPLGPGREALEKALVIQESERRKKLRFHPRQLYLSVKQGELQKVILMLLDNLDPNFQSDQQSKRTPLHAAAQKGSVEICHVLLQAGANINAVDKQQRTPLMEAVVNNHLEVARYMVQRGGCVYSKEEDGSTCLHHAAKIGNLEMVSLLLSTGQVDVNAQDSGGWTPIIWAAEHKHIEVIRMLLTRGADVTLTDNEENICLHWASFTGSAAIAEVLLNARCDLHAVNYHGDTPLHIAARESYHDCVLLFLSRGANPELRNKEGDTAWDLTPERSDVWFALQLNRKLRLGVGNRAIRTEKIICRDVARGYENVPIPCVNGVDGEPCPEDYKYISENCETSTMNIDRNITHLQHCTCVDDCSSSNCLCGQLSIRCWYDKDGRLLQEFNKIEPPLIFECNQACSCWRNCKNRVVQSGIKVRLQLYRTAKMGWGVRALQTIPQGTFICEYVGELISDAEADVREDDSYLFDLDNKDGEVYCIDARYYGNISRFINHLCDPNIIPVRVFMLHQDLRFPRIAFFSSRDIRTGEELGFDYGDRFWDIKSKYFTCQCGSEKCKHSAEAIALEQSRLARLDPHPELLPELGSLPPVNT", "experiment": "qHTS Assay for Inhibitors of Histone Lysine Methyltransferase G9a; note: nearly all actives have a fitted effect of over 75% in size", "settings": "G9a H3K9 monomethylation, AlphaScreen, 2 h; activity, negative = inhibition: at 59 µM (top of the series) unless noted", "procedure,_shortened": "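Chemiluminescent proximity detection of H3K9 monomethylation, read after 10 min bead incubation in the dark. Reaction: 20 nM G9a, 500 nM biotin-H3K9 peptide, 20 uM SAM cofactor, 2 h, room temperature, following 15 min enzyme-compound preincubation.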", "values": [
      {"smiles": "CC(=O)Nc1ccc(S(=O)(=O)NC2CC(=O)N(c3ccc(C)c(C)c3)C2)cc1", "note": "(configuration not stated)", "activity, negative = inhibition": "inactive: -0.174% [at 102 µM]"},
      {"smiles": "O=C(NCc1ccc2c(c1)OCO2)c1nnc(Cc2ccc(Cl)cc2)o1", "activity, negative = inhibition": "inactive: 15.4% [at 102 µM]"},
      {"smiles": "O=c1c2c3c(sc2nc2sc(C4CC4)nn12)CCCC3", "Potency": "inconclusive: 50.1 µM [inhibitor, partial curve, poor fit]"},
      {"smiles": "O=C(c1ccc(F)cc1)N1CCCC(N2CCN(Cc3ccc4c(c3)OCO4)CC2)C1", "note": "(configuration not stated)", "activity, negative = inhibition": "inactive: 7.34% [at 102 µM]"},
      {"smiles": "COc1ccc(NCC(=O)N/N=C(\\C)c2cc3ccccc3o2)cc1", "Potency": "active: 15.8 µM"},
      {"smiles": "Cc1ccc(C(=O)O)cc1N=Cc1cc(Br)cc(Br)c1O", "Potency": "inconclusive: 89.1 µM [inhibitor, single point]"},
      {"smiles": "Cn1ncc(N=Cc2ccccc2O)c1C(=O)Nc1ccccc1", "Potency": "inconclusive: 2.51 µM [inhibitor, partial curve, poor fit]"},
      {"smiles": "CCC(C)NC(=O)Cn1ccc2cc(S(=O)(=O)N3CCCCC3)ccc21", "note": "(configuration not stated)", "activity, negative = inhibition": "inactive: -11.5%"},
      {"smiles": "Cc1ccc(NC(=O)C(C)SCc2nc3sc(C)c(C)c3c(=O)[nH]2)nc1", "note": "(configuration not stated)", "Potency": "active: 14.1 µM"},
      {"smiles": "Fc1ccccc1COc1ccc(Br)cc1CNCc1cccnc1", "activity, negative = inhibition": "inconclusive: -62.5% [inhibitor]"},
      {"smiles": "CCOc1ccc(C(=O)N2CCN(Cc3ccccc3)CC2)cc1", "Potency": "inconclusive: 39.8 µM [inhibitor, single point]"},
      {"smiles": "CC(=O)c1ccc(N2CCN(c3ccnc4cc(Cl)ccc34)CC2)cc1", "activity, negative = inhibition": "inactive: 3.67% [at 102 µM]"},
      {"smiles": "COc1ccccc1NS(=O)(=O)c1cc(C(=O)NCC(c2cccs2)N2CCOCC2)ccc1C", "note": "(configuration not stated)", "Potency": "inconclusive: 3.16 µM [inhibitor, partial curve, poor fit]"},
      {"smiles": "CCOc1ccc(-c2ncnn2-c2sc3c(c2C#N)CCCCC3)cc1", "Potency": "inconclusive: 2 µM [inhibitor, partial curve, poor fit]"},
      {"smiles": "Cc1nc(SCC(=O)NC(=O)NC(C)C)nc(C)c1C", "Potency": "inconclusive: 50.1 µM [inhibitor, partial curve, poor fit]"},
      {"smiles": "CCOC(=O)c1c(C)n(C)c2ccc(O)c(CN3CCCCC3)c12", "activity, negative = inhibition": "inconclusive: -76.4% [inhibitor]"},
      {"smiles": "C=CCn1c(SCCN2CCCCC2)nc2c1c(=O)[nH]c(=O)n2C", "Potency": "inconclusive: 89.1 µM [inhibitor, single point]"},
      {"smiles": "Cc1nc(N)sc1N=Nc1ccc(Br)cc1", "Potency": "inconclusive: 10 µM [inhibitor, partial curve, poor fit]"},
      {"smiles": "COc1ccccc1/C=C1/SC(=S)N(C(C)C(=O)NC2C=CS(=O)(=O)C2)C1=O", "note": "(configuration not stated)", "Potency": "active: 44.7 µM"},
      {"smiles": "Cc1oc(-c2ccc(C(=O)NCc3ccc(Cl)cc3)cc2)nc1CS(=O)(=O)c1ccccc1", "Potency": "inconclusive: 7.08 µM [inhibitor, partial curve, poor fit]"},
      {"smiles": "COc1cccc(NC(=O)CN2C(=O)NC(C)(CCC(C)C)C2=O)c1", "note": "(configuration not stated)", "activity, negative = inhibition": "inactive: 11.6% [at 102 µM]"},
      {"smiles": "Oc1ccc2ccccc2c1CN1CCOCC1", "Potency": "active: 0.355 µM"},
      {"smiles": "CCN1/C(=C\\C=C2\\C(=O)N(C)C(=S)N2C)Sc2ccccc21", "Potency": "inconclusive: 3.98 µM [inhibitor, full curve]"},
      {"smiles": "O=C(CCCN1C(=O)CCC1=O)Nc1ccc(Br)cc1F", "activity, negative = inhibition": "inactive: 16.8% [at 102 µM]"},
      {"smiles": "CSc1ccccc1NC(=O)CN(C)CC(=O)c1c(C)[nH]c2ccccc12", "activity, negative = inhibition": "inconclusive: -113% [inhibitor] [at 12.7 µM]"},
      {"smiles": "O=C(Nc1cccc2nsnc12)c1ccc(-c2ccc(Br)cc2)o1", "Potency": "active: 39.8 µM"},
      {"smiles": "CC(C)c1ccc(N)c(S(=O)(=O)O)c1", "Potency": "inconclusive: 89.1 µM [inhibitor, single point]"},
      {"smiles": "COc1ccc(Cn2ccc3nc(C)c(C(=O)Nc4cc(C)cc(C)c4)cc3c2=O)cc1", "activity, negative = inhibition": "inactive: 11%"},
      {"smiles": "CCN(CC)c1ccc(/C=N/NC(=O)c2c(Cl)c(C)nn2C)cc1", "activity, negative = inhibition": "inactive: -0.149%"},
      {"smiles": "COC(=O)c1cn[nH]c1NC(=S)Nc1ccc(C)cc1Cl", "Potency": "inconclusive: 79.4 µM [inhibitor, partial curve, poor fit]"},
      {"smiles": "Cc1cc(C)c(OCC(=O)N(Cc2ccco2)Cc2ccco2)c(C)c1", "activity, negative = inhibition": "inactive: -4.66%"},
      {"smiles": "O=C(CSc1cccs1)Nc1ccc(Cl)cc1", "Potency": "inconclusive: 100 µM [inhibitor, single point]"},
      {"smiles": "CCOC(=O)c1ccc(NS(=O)(=O)c2ccc(-c3cc(C)no3)cc2)cc1", "Potency": "inconclusive: 5.01 µM [inhibitor, partial curve, poor fit]"},
      {"smiles": "O=C(COc1ccc(-c2nnco2)cc1)Nc1ccc(C(F)(F)F)cc1", "Potency": "inconclusive: 1.78 µM [inhibitor, partial curve, poor fit]"},
      {"smiles": "CCN(CC)CCn1c2ccc(F)cc2c2nc(C)sc21", "activity, negative = inhibition": "inconclusive: -70.2% [inhibitor]"},
      {"smiles": "O=C(CSc1nnc(-c2ccccc2F)o1)Nc1ccc(N2CCOCC2)cc1", "Potency": "inconclusive: 39.8 µM [inhibitor, single point]"},
      {"smiles": "CCc1nnc(NC(=O)CN2CCN(S(C)(=O)=O)CC2)s1", "activity, negative = inhibition": "inactive: -8.74% [at 102 µM]"},
      {"smiles": "CCOC(=O)c1c(NC(=S)Nc2ccc(Cl)cc2)sc(C)c1C", "Potency": "inconclusive: 15.8 µM [inhibitor, single point]"},
      {"smiles": "CCC1(c2ccccc2)NC(=O)N(CC(=O)NCCN2C(=O)S/C(=C\\c3cccnc3)C2=O)C1=O", "note": "(configuration not stated)", "activity, negative = inhibition": "inconclusive: -87.2% [inhibitor] [at 2.33 µM]"},
      {"smiles": "Cc1cccc(OCC(=O)N2CCN(C(=O)COc3ccc(Cl)cc3)CC2)c1", "activity, negative = inhibition": "inactive: 23.8% [at 102 µM]"},
      {"smiles": "COCCN(CC(=O)Nc1cccc(C)c1)S(=O)(=O)c1ccc(S(=O)(=O)N2CCCC2)cc1", "Potency": "inconclusive: 39.8 µM [inhibitor, single point]"},
      {"smiles": "O=C(NC1CCSc2ccccc21)c1cccc(S(=O)(=O)N2CCOCC2)c1", "note": "(configuration not stated)", "Potency": "inconclusive: 10 µM [inhibitor, partial curve, poor fit]"},
      {"smiles": "CCOc1c(C)cc(-c2ncccc2O)cc1C", "activity, negative = inhibition": "inactive: -10.9%"},
      {"smiles": "COc1ccccc1NC(=O)COC(=O)c1c(C)nn(-c2ccccc2)c1C", "activity, negative = inhibition": "inactive: 6.94% [at 12.7 µM]"},
      {"smiles": "CCCCOC(=O)CCCN1C(=O)/C(=C2\\SC(=S)N(CCCC(=O)OCCCC)C2=O)SC1=S", "Potency": "inconclusive: 2.24 µM [inhibitor, partial curve, poor fit]"},
      {"smiles": "CCS(=O)(=O)c1nn2c(N)c(/C=C3/C=CC(=O)C(OC)=C3)c(=O)nc2s1", "Potency": "inconclusive: 25.1 µM [inhibitor, single point]"},
      {"smiles": "O=C(Nc1ccccc1OC(F)F)c1ccc(-n2cncn2)c([N+](=O)[O-])c1", "Potency": "inconclusive: 89.1 µM [inhibitor, partial curve, poor fit]"},
      {"smiles": "Cc1cc(C)n(-c2nc(SCC(=O)O)c3c4c(sc3n2)COC(C)(C)C4)n1", "Potency": "inconclusive: 1.41 µM [inhibitor, partial curve, poor fit]"},
      {"smiles": "CCOC(=O)C1CCCN(CC(=O)c2ccc(F)cc2)C1", "note": "(configuration not stated)", "Potency": "inconclusive: 0.794 µM [inhibitor, single point]"},
      {"smiles": "CN(CC(=O)Nc1cccc(F)c1)C(=O)CSc1ccccc1", "Potency": "inconclusive: 50.1 µM [inhibitor, partial curve, poor fit]"},
      {"smiles": "Cc1cnc(C(=O)OCC(=O)NC2CCCC(C)C2C)cn1", "note": "(configuration not stated)", "Potency": "inconclusive: 50.1 µM [inhibitor, partial curve]"},
      {"smiles": "Cc1cccc(C(C)C)c1NC(=O)C1CCCN1S(=O)(=O)c1cccc2nsnc12", "note": "(configuration not stated)", "activity, negative = inhibition": "inactive: -28.2%"},
      {"smiles": "CC(C)C(=O)OCc1cn(-c2ccc(Cl)c(Cl)c2)nn1", "activity, negative = inhibition": "inactive: 26.4% [at 102 µM]"},
      {"smiles": "S=c1[nH]nc(-c2ccco2)n1/N=C/c1cccc(Cl)c1Cl", "Potency": "active: 1.41 µM"},
      {"smiles": "COc1ccc(N2CCN(C(=O)C(=O)c3c(C)[nH]c4ccccc34)CC2)cc1", "Potency": "active: 39.8 µM"},
      {"smiles": "COCCNC(=O)CSc1nc(-c2cc(OC)c(OC)c(OC)c2)[nH]c1-c1ccc(Cl)cc1", "activity, negative = inhibition": "inactive: -25.3%"},
      {"smiles": "Cc1cc(C(=O)N2CCCC(C(=O)c3cccc(C(F)(F)F)c3)C2)n[nH]1", "note": "(configuration not stated)", "Potency": "inconclusive: 50.1 µM [inhibitor, partial curve]"},
      {"smiles": "CCC(=O)c1ccc(OCC(=O)OCC(=O)NCc2cccs2)cc1", "Potency": "inconclusive: 89.1 µM [inhibitor, single point]"},
      {"smiles": "C=CCN1C(=O)c2ccc(C(=O)N(C)CC(=O)Nc3cccc(F)c3)cc2C1=O", "activity, negative = inhibition": "inactive: 29.9% [at 102 µM]"},
      {"smiles": "Cc1c(C)n(C(=O)CN2CCN(c3ccccn3)CC2)c2ccccc12", "Potency": "inconclusive: 31.6 µM [inhibitor, single point]"},
      {"smiles": "COc1ccc(N=C(C)C2=C(O)c3ccccc3C2=O)cc1", "activity, negative = inhibition": "inactive: 0.623%"},
      {"smiles": "O=C(N/N=C\\c1ccc([N+](=O)[O-])o1)c1ccc(O)cc1", "activity, negative = inhibition": "inactive: -45.1% [at 0.843 µM]"},
      {"smiles": "CNc1ccccc1C(C)(C)c1cc(-c2cccc(Br)c2)no1", "Potency": "inconclusive: 39.8 µM [inhibitor, partial curve, poor fit]"},
      {"smiles": "CSc1nnc(C(C)(C)C)c(=O)n1/N=C/c1c(O)ccc2ccccc12", "Potency": "inconclusive: 50.1 µM [inhibitor, partial curve]"},
      {"smiles": "COc1ccc(OC)c(NC(=O)NCCc2c[nH]c3ccccc23)c1", "Potency": "active: 79.4 µM"},
      {"smiles": "Cc1nn(C)c(C(=O)NNC(=S)NC2CCCCC2)c1Cl", "Potency": "inconclusive: 79.4 µM [inhibitor, single point]"},
      {"smiles": "Cc1ccc(S(=O)(=O)/N=C2/NC(=O)/C(=C/c3ccccn3)S2)cc1", "Potency": "active: 56.2 µM"},
      {"smiles": "Oc1ccc(-c2cn3ccccc3n2)cc1O", "Potency": "active: 2 µM"},
      {"smiles": "NC1=NC(=O)/C(=C/c2cn(Cc3ccccc3)c3ccccc23)S1", "Potency": "active: 50.1 µM"},
      {"smiles": "Cc1ccc(Cl)cc1NC(=O)Nc1nnc(N(C)Cc2ccccc2)s1", "Potency": "inconclusive: 10 µM [inhibitor, partial curve]"},
      {"smiles": "CN(C)CC/C=C1/c2ccccc2Sc2c(O)cc(Cl)cc21", "Potency": "active: 25.1 µM"},
      {"smiles": "O=C(O)Cn1cc(/C=C2/NC(=O)N(c3ccc(Cl)cc3)C2=O)c2ccccc21", "Potency": "inconclusive: 35.5 µM [inhibitor, full curve]"}
    ]}
  ]
}
